Data reported in paper PMC11841259.
No constants are given. Whether binding was seen depends on the method and setting. In cells and extracts the contact can be indirect. Some results given as binding are weak or reduced against the parent protein; the word gives no strength. One block for each substance: values may come before it.

Amino acid sequences for entries named in this document (tags omitted). A change or cut given only in a name is not applied to a line headed by its entry. Chains listed by the source or under a name are the forms on record and can include a tag or linker.
RORγt (endogenous, mouse Th17 cells) (P51450-2, form named): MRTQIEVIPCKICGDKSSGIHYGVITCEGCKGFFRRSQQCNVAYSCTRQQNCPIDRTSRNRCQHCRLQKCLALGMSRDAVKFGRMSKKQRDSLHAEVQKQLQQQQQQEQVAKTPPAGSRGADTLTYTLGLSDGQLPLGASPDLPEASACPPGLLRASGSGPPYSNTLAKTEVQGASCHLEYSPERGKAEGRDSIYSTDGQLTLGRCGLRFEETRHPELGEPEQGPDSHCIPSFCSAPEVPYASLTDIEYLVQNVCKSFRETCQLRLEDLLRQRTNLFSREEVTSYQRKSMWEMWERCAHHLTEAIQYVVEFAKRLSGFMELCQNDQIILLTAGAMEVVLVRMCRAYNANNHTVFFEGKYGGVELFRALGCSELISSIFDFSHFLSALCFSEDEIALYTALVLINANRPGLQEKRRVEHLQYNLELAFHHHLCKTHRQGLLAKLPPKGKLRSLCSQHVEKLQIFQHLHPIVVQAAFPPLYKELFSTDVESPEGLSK
Myc-tagged RORγt Y479F mutant (P51450-2, form named): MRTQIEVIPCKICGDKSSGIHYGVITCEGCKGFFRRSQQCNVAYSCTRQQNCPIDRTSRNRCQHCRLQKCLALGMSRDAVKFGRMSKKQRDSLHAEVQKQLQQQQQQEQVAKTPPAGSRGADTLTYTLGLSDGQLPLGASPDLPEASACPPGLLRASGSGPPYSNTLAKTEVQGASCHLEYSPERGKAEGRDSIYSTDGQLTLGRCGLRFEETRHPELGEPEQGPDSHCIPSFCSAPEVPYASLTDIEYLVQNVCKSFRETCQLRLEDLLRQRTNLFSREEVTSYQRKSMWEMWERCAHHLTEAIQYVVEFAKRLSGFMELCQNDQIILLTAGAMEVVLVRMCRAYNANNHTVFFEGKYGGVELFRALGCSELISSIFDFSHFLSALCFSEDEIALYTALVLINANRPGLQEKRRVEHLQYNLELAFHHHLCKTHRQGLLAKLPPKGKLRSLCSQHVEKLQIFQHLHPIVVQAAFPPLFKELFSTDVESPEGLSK
GST-Nedd4 (P46934-4, form named): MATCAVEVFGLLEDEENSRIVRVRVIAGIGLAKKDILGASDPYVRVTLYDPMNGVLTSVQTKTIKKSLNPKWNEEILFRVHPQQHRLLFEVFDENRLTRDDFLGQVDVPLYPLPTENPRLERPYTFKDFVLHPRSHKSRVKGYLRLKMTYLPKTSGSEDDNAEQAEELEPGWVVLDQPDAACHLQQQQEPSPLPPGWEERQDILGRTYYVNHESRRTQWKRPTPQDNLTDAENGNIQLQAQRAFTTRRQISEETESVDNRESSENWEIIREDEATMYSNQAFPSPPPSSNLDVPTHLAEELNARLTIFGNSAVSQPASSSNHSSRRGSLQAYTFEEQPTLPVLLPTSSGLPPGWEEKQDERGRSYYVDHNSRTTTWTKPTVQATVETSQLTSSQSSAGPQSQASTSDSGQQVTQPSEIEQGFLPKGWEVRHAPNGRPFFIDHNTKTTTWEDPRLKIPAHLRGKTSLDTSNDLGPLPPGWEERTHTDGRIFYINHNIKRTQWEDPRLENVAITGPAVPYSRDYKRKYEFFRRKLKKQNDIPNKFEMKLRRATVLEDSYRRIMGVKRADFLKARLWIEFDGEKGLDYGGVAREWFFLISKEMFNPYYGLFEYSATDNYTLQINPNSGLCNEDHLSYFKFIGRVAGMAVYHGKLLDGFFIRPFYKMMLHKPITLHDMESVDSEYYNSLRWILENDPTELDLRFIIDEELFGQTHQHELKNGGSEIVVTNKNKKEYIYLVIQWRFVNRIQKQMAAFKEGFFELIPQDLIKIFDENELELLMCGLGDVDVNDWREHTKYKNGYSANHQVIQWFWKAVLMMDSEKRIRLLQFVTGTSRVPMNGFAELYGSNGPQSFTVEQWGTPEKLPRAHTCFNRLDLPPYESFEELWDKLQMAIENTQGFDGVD
UniProt P46935: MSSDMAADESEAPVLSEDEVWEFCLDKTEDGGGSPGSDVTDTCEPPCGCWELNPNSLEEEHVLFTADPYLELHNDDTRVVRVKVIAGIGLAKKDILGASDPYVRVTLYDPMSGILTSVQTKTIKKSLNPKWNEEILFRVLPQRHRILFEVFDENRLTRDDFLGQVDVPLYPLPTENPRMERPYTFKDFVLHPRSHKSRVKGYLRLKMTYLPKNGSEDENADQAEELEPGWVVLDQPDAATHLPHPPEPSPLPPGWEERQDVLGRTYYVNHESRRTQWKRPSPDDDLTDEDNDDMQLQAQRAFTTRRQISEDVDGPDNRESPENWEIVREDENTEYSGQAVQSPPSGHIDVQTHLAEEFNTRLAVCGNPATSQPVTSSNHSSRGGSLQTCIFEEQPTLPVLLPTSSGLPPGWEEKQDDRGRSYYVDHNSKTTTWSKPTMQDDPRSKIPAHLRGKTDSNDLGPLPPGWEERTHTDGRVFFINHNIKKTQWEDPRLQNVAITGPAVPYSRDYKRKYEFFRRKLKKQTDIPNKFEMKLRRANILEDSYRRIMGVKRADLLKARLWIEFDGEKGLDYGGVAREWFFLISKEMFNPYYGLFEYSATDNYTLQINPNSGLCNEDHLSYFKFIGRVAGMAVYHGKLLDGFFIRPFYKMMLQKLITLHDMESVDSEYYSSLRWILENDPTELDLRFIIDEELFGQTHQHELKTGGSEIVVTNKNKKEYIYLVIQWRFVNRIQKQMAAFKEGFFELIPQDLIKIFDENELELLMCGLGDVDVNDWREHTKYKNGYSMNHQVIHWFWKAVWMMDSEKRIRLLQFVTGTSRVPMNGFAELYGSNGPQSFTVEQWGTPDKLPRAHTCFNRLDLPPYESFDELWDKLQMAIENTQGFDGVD
UniProt Q8CFI0: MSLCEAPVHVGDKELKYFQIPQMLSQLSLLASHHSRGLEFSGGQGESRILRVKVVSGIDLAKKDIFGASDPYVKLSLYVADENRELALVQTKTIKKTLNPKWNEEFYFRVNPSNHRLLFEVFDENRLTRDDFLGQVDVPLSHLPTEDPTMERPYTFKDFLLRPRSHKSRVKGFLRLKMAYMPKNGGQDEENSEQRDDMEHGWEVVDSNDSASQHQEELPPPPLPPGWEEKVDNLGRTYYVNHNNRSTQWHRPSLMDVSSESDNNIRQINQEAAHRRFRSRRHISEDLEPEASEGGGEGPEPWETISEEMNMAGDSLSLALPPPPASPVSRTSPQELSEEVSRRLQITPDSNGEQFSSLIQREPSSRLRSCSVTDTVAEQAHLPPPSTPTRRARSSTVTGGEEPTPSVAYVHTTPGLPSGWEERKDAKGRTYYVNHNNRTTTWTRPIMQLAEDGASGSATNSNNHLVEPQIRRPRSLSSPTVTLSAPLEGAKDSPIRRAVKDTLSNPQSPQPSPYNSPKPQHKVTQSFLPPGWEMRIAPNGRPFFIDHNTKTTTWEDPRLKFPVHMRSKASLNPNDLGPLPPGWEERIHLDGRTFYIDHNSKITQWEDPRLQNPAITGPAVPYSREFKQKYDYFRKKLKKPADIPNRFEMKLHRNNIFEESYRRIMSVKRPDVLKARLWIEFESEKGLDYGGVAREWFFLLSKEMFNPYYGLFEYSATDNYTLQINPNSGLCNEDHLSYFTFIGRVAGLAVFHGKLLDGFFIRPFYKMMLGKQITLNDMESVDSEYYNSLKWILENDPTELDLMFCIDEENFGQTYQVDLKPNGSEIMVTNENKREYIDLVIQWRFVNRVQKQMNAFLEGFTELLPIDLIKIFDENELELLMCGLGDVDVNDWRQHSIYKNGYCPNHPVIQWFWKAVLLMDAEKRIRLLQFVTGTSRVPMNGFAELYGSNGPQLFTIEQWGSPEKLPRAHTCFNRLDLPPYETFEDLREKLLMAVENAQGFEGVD

Columns and labels:
[1] = target: RORγt (endogenous, mouse Th17 cells) (mouse (endogenous in Th17 cells)) (UniProt P51450); experiment: co-IP; endogenous proteins; mouse Th17 cells (unstimulated or restimulated with anti-CD3 and anti-CD28) lysed in 0.5% NP40 lysis buffer; immunoprecipitated with anti-RORγt conjugated to agarose, blotted with anti-Nedd4 and anti-Nedd4-2
[2] = target: Myc-tagged RORγt (UniProt P51450); experiment: co-IP; HEK293T cells transfected with Flag-tagged Nedd4 or its truncated fragments and Myc-tagged RORγt or RORγt Y479F; 0.5% NP40 lysis buffer; immunoprecipitated with anti-Myc, blotted with anti-Flag
[3] = target: Myc-tagged RORγt Y479F mutant (UniProt P51450); experiment: as above
[4] = target: GST-Nedd4 (UniProt P46934); experiment: pull-down; GST-Nedd4 or GST-Nedd4 WW incubated with Th17 cell lysates; glutathione sepharose beads, 4 °C, washed 5 times with 1x TBST; only the target purified

- binding [1]: binds
Substance: Nedd4 (endogenous, mouse Th17 cells) (from UniProt P46935 1-887) (enzyme)

- binding [2]: binds
- binding [3]: no binding
Substance: Flag-tagged Nedd4 (full-length) (from UniProt P46934-4 1-900) (enzyme)

- binding [1]: binds
Substance: Nedd4-2 (endogenous, mouse Th17 cells) (from UniProt Q8CFI0 1-1004) (enzyme)

- binding [4]: binds
Substance: RORγt (endogenous, mouse Th17 cells) (from UniProt P51450-2 1-495)
